In the RNAGym collection of RNA variant scans (doi:10.1101/gad.245936.114):
Variants at the background level are over-represented here.

B1: tRNA (parent)
chain: CUCUCGGUAGCCAAGUUGGUUUAAGGCGCAAGACUUUAAUUUAUCACUACGAAAUCUUGAGAUCGGGCGUUCGACUCGCCCCCGGGAGAUUUUUUCCUCGAGCAA

Variants of: B1
Assay: nonsense suppression (GFP-seq) (ratio to wild type); higher = more function; SUP4oc tRNA, yeast GFP reporter sort-seq
Method in brief: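 Yeast were grown in raffinose/galactose medium with 80 mg/L adenine, each strain bearing a genome-integrated ochre-suppressor tRNA variant from a ~3% random-mutation library, a galactose-driven GFP ochre reporter, and RFP. After sorting into GFP/RFP bins, every bin was sequenced on an Illumina platform at phred ≥30. The GFPSEQ value, a measure of nonsense suppression, is the weighted bin median GFP/RFP relative to the unmutated parent tRNA, using each variant's estimated cell share per bin as the weight. Only variants with ≥100 reads and ≥30 cells were included.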

Nonsense suppression, 1.07:
C3U G86A

Nonsense suppression, 0.31:
U4C A24G

Nonsense suppression, 0.334:
U4C A13G C83U

Nonsense suppression, 0.2:
U4A A9U

Nonsense suppression, ≤ 0.026:
U4A U63C U76C G78C G85A
U4A G7U G15A U21A
U4C A14G
C3U U57C G66U
U4G C5G
C3U G10C A23U C83G G85A A89U
C3U G10U G15C
U4A U55G G66A U76C
U4A G67C C68U
C3U U4A
U4A G10A C83U
U4C G28U U76A
C3U U21C U55G
C3U G59C G61A
C3U U63C C82A
U4A G28U G84A
U4C C80A
U4G C5G G26C G28U
C3U U55A U63A G86C
U4C G6U C68A G78C
C3U G66C G88U
C3U G15A C34U C75U
U4A C12G C29U A31G A54U G67A U76C A89C
C3U U76A C80U
U4C G19A A54U
U4A U58A G59A
U4A C11U A33G G86U A87C
C3U G26U C80A G88U
U4C A13C U76G
U4A G7C G28U
U4G A31U G86A
U4G A74C G85A G88C
U4G A9U G18U A23C
U4G A60G C68U
C3U C75A U76A A89C
U4C U58G A74C
C3U G32A C82U G88U
U4A A24G A54G G67C
U4C C11A A33G A74U
U4G A33C
C3U G84U
U4A C5A U63G
C3U C12U U70C
C3U U57G G85C
C3U C27U
U4G A13G G26U C27U G78C C82A
C3U G65A C72G G73U
U4A A87C
C3U C72U A74C C77A
C3U G19A C72G
U4C A23U A54G G59U G67C
U4C G26C
U4C G69U G86C
U4G A60C C68G C79U C83A
C3U U35A C79G
U4C U35A U55A G88A
C3U U22G A23U G78A
U4C A23G C68A A87G
C3U G6A G10C
C3U U55A U63A
C3U U21C A33U
U4A C11G G26C G61A C83G
C3U C12G
U4C A14G C64G
C3U U20A G26A
C3U U21G G25U G69U A74G
C3U G26A
C3U G26C
U4G A9G G65C U70A
U4C U71A
U4C U71C
U4A G69U
C3U G7C U8A G59U G78A
C3U U63A C81G
U4C C11G G26C G61A C83G
U4A C12U
U4A C77U A89U
C3U C29G
U4A G26A A33U
C3U C34U U71A A74U
C3U G18A C56G G65C
C3U C11A U22C
C3U C27G G32U
U4A G69C U71C G84C
U4C C5G G85C
C3U G7A U20C G61U
U4C U17G A24C G26A
U4C A24U U63A G88C
U4C A24G G67A U70G A89G
U4C G15A U63A G66C U71C
C3U U8C C11G U63A
U4C G65A
U4A C68G C77G
U4C G19A
U4A U17A U22G A24C
U4A C64U U70A A74G
C3U U70C
U4G A9U C27A U35C
C3U C12A C34A
C3U C80A
U4C G15C C77U
C3U C5G C80A C81U
U4G A23U A24C A33U G67A G84C A87G G88C
C3U C27A G88U
C3U G59A
U4G A14U U16G C29A A33U G69C A74G
U4C U63C G67A
U4G A13U G88U
C3U U21C G59C
U4A G19A A31U A62G
U4C A13U A54C A74C
C3U G67C
C3U U4A U58C G61A
U4C U58G
C3U U35C C80A
U4A G84C G88U
C3U C81A
U4C C72U
C3U G15C A31U U35A
U4A A14U A30C A31C
C3U G69C
U4A C5U G7U C11A G25C
C3U G26U U70G C80G
U4A U58G C81G
U4A G7U C29U U76C
C3U U8A A54G
C3U U4G C12U G15A
U4C C64G U71G G78A
C3U C5A G26U
U4A U16A A24U U63A G78C
C3U G25U A33C C72G A87C G88U
U4A A14C C29A A60U G86A
U4C G26C C29A
C3U C12A U35G U71A
C3U C12G U17C G26U U35G
U4C G26C G73U
C3U U21A G61C C68U U76C
C3U G85C
C3U U8G G67A
C3U G18C U63C
U4A U22C A31U A33G
C3U U22A A24G
C3U C5U C75G
U4A U57A
C3U U4C C79G
U4C G6A U57G C81U C83U
C3U G18U
C3U C83G
U4C C12G G32U
C3U U22C G26A A33G A62U G66A U76G G78U
U4C U8G
C3U C34A U58G U70C G88A A89C
U4G A74C
U4A G7U G69C
U4G C5G C64A
C3U G10C U16G C27G C29U
C3U G25U
C3U C5U U76A C81A
U4A A23C G65C C82G G86C
U4G A23G C68G C80A
U4G A14G U71A
U4C A74U
C3U G6U G61U C79G
U4C A33U C64A
U4A A60C U71A
U4C A23C
U4A U17C G32A C77G
U4A C5A A9G C11U
C3U C5U G10U G65A G88U
C3U C27G A89U
C3U U22C U55A
U4G A30C
U4A C11A G61C
U4A U55A U71C G73A
U4A C56U C64A G65A G66C G73U
C3U C11A U22G G59C
C3U G15U A31G C75G G86U
U4C C77G C81A
U4C A14U G28C C82A
C3U G6U G61A G65A
U4A A30U C77G
U4C A54U G88U
U4C U20G U21C C79A
U4A G59U A62U C83G
C3U U22G C27A A60U
U4C A13G U16G G19C A23U U57G
U4A A24U U57A G73A
C3U U20G A24G
U4A G7A A13U G66C
C3U G78C
U4C C27G G32A A62G
U4A U8A A23U G69U
U4G C5U G25A U55A G86U
C3U C5U C29U A74G
U4G A9G C68G
C3U G26C C64A
U4C A13U A54U C81G
U4A U63C G78C G85A
U4C G18C
U4C A62G
U4G A14G U20G
U4A G28A U70C
C3U G6U G18A G32A
C3U U58G C77A G78A
U4C U58A G69A
U4A G32A A33U G78A
C3U C77U
U4C U35A C64G G88C
C3U C34A
C3U C34U
U4C G15A A23G G67A C79G
U4A U57A G86C
U4A G73A
C3U U22G A24U G26A G32A
U4C U35G U63G C68U
U4C G59U A60C
U4G A24C G67U
C3U G18U G32C
U4A C12U U55G G61C
C3U G32A
C3U G25U G85A
U4A U20C C83A
U4G A14U G26A
U4A C64U G65C C81G A87U
U4A U22C G66A A74U
U4A U8G
U4C U76C A89G
C3U C12A U17G U20C U71G A89C
C3U U57C G69A G73A G85A
U4A G25C G69C
C3U G28U G32A A33G
U4A G19A C29A
C3U U17C G73A
U4A A30U
C3U C12U C27G C34A
U4A U17G U76A
U4G C11A A31C A54C
C3U U57C
C3U G88A
C3U C12U A60G G67A
U4A A23C G85C
U4A G15U A60G
U4C G6C U8C A23C A30U A54U U70C G88U
U4A U22C U63G
C3U U4A C12A A13U U71A
C3U G73C A87C
U4A C5A U55C U70A C75G
C3U G18U G19C G67A C80U
C3U U4C U16C G19C U63C G66A
U4C C12G G25U A30U
C3U U4C A14G G28U A60C
U4G A14C U70A
U4A A74C
C3U C29U G78C
C3U U8A A14U A31U G67U
U4G A9C U20G U21A
U4C C11A C75U
U4A U22G G66A
U4C G66C
C3U C27G C80G G84C
C3U U4C A14C U57C
U4C U17G A30G A33G
U4A A23U
U4C A13U U70A G84U
C3U U8C G61A A62C
U4A G18A C77A
U4C C11G A74G
U4C G10U U16A U20C C72G C75G
C3U U35G U58G G67A C75G
C3U C11U A14G U22C U35C G61U
U4C U55C G78A G86U
U4C A23U U76C G85C
C3U G19A G69U C81A
U4C A14U G26C
C3U G28U
U4G A13C U35G G61A A74C C80U
U4C C27G A33U A60U U63A
U4A U55C A74G A89C
U4C U8A U17G A31C U70C
U4A A30U C81A
U4C A23C G65A C83G
U4G C5G U57A
U4G C11A U55C U63G
U4A U58G
C3U G25A G61U
U4C C72U G73C G78A
C3U G7C A33G G65A G67A
C3U U57A G73A
C3U G15C U63G C75A
U4G A14G U21G G26A C56A
C3U U63G G67C
U4C U17C G73U
C3U C79G

Nonsense suppression, 0.0656:
C3U G73A

Nonsense suppression, 0.0941:
C3U C81U

Nonsense suppression, 0.202:
C3U U58C

Nonsense suppression, 0.109:
U4C C11U

Nonsense suppression, 0.0441:
U4C U8A

Nonsense suppression, 0.427:
U4C G6U G28A

Nonsense suppression, 0.221:
U4C A13G C29U

Nonsense suppression, 0.0942:
U4A A14G

Nonsense suppression, 1.12:
U4G A60U

Nonsense suppression, 0.0287:
U4G A74G

Nonsense suppression, 0.072:
U4A U20A

Nonsense suppression, 0.528:
C3U G85A

Nonsense suppression, 0.206:
C3U U21C G61A

Nonsense suppression, 0.0274:
U4C C34A

Nonsense suppression, 0.0916:
C3U U8C

Nonsense suppression, 0.12:
C3U U63A

Nonsense suppression, 0.609:
U4C U57A

Nonsense suppression, 1.05:
U4C U20C

Nonsense suppression, 1.16:
U4C U22C G86A

Nonsense suppression, 0.194:
U4A G61U

Nonsense suppression, 0.0437:
U4A U76A

Nonsense suppression, 0.0398:
C3U U76A

Nonsense suppression, 0.0343:
U4C A14U

Nonsense suppression, 1.02:
U4C G61U

Nonsense suppression, 0.247:
U4A U16G

Nonsense suppression, 0.155:
U4A U63A

Nonsense suppression, 0.0868:
U4C U21C G67A

Nonsense suppression, 0.158:
C3U C5U

Nonsense suppression, 1.11:
U4C C29A
C3U U4C A9C

Nonsense suppression, 0.625:
U4C G85A

Nonsense suppression, 0.169:
C3U U22A

Nonsense suppression, 0.0792:
U4C A30U

Nonsense suppression, 0.978:
U4C G78A

Nonsense suppression, 0.0511:
U4G A9C

Nonsense suppression, 0.197:
U4C A87C

Nonsense suppression, 0.0324:
U4A G85A
